Results: PubChem BioAssay AID1346428 (National Center for Advancing Translational Sciences (NCATS), 2018)
Among all 48,000 compounds or so, about 1,200 (2.5%) were called active. Inconclusive results (about 2%) are left out.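 How the source made its calls: active means activation of at least 60% and not above a set upper limit (about 1 call in 100 departs from these limits); inconclusive means activation of 40% to 60%, or above that upper limit; inactive means activation under 40%.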 The list shows a part of the results.

The compounds below were run against Probable G-protein coupled receptor 32 (Homo sapiens) (UniProt O75388) (assay: qHTS for Agonists of Human Resolvin D1 Receptor DRV1). Conditions: CHO-K1 GPR32 beta-arrestin PathHunter luminescence, 90 min; at 76.9 µM; stronger effect = higher value; zero percent set by DMSO-only wells.
How it was run: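 Cells are plated overnight, treated with compounds in DMSO for 90 minutes at 37 °C, and developed with PathHunter detection reagent for 1 hour before luminescence is read; signal reflects beta-arrestin binding to GPR32 in engineered CHO-K1 cells.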
Further: 0% is about no effect.

UniProt O75388, sequence (O75388 whole entry, looked up): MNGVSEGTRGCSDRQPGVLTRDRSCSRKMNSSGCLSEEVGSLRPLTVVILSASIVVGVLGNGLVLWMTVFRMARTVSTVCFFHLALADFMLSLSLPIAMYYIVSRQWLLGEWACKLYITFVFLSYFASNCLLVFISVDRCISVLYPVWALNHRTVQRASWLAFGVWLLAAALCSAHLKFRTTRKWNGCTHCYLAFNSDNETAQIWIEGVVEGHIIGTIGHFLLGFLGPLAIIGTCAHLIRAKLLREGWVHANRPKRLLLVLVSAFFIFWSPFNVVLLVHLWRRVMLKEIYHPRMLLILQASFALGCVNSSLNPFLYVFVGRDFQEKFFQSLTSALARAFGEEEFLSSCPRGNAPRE

activation, active:
Cc1cc(NC(=O)CCc2nc3cccnc3n2-c2ccccc2)ccc1Br 65.8%
COCCCNc1nc(NCc2ccccc2OC)c2cnn(C)c2n1 75.1%
Cc1ccc2c(CNCCc3ccccc3)c(C(=O)O)n(Cc3ccccc3C)c2c1 65.5%

activation, inactive:
Cc1csc2nc(COC(=O)c3ccccc3NC(=O)c3cccc(Br)c3)cc(=O)n12 8.92%
COCCn1c(SCC(=O)Nc2cc(Cl)ccc2OC)nc2c([nH]c3ccccc32)c1=O -5.47%
Cc1ccc(N2CCN(C(=O)c3nn(C)c4c3CS(=O)(=O)c3ccccc3-4)CC2)c(C)c1 -4.95%
CCc1ccc2nc(N(Cc3cccnc3)C(=O)c3ccc(C#N)cc3)sc2c1 -15.1%
CCCCC(=O)Nc1ccc2nc(SCC(=O)N3CCc4ccccc43)sc2c1 13.9%
CC(=O)Nc1ccc(NC(=O)c2oc3c(c2C)-c2nn(Cc4ccccc4Cl)cc2CC3)cc1 -7.22%
O=C(CCn1c(=O)c2sccc2n(Cc2ccccc2F)c1=O)NCc1ccc2c(c1)OCO2 -2.62%
CCOC(=O)c1ccc(NC(=O)Cn2nc3c4ccccc4n(Cc4cccc(F)c4)cc-3c2=O)cc1 -5.57%
CCOC(=O)N1CCc2c(sc3c2c(=O)n(Cc2ccccc2)c(=O)n3CC(=O)Nc2cccc(CC)c2)C1 -5.25%
CCc1cccc(NC(=O)CCn2c(=O)c3cccn3c3cccnc32)c1 -14.1%
Cc1ccc(Nc2ccc3cc(S(=O)(=O)N4CCC(C)CC4)ccc3n2)c(Cl)c1 -41.4%
CCOc1ccc(-n2cc(-c3ccccc3)c3c(NCCc4ccccc4)ncnc32)cc1 -30.9%
Cc1cccc(NC(=O)Cn2nc(-c3ccccc3)c3cnc4ccccc4c32)c1 13.3%
COc1ccc(C(=O)c2c(N)c(-c3nc(-c4ccc5c(c4)OCO5)cs3)c3ccccn23)cc1 -3.8%
O=C(NCCc1ccccc1)c1ccc(CS(=O)Cc2ccc(Cl)cc2)o1 (centres undefined) -21.7%
O=C(CCNS(=O)(=O)c1ccc2c(c1)CCCC(=O)N2)Nc1cccc(Cl)c1 44.6%
COC(=O)Cn1c(C2CC(=O)N(c3c(C)cccc3C)C2)nc2ccccc21 (centres undefined) -2.69%
O=S(=O)(c1ccc(C2CCCCC2)cc1)N1CCN(c2ccc(Cl)c(Cl)c2)CC1 -6.64%
O=C(Nc1ccc(F)cc1F)C1CCN(c2ncccn2)CC1 14.7%
Cc1ccc(C)c(N2CCN(c3ncnc4c3nc3n4CCCC3)CC2)c1 -3.02%
Cc1ccccc1NC(=O)Cn1cc(C(=O)c2ccco2)c2ccccc21 -12.5%
Cc1ccc(-c2nn3c(-c4ccccc4C)nnc3c3ccccc23)cc1 -18%
CCOC(=O)c1cc(-c2ccccc2)n(-c2cccc(C(=O)Nc3cccc(SC)c3)c2)c1C -21.5%
Cc1cn2c(=O)cc(COC(=O)c3ccc(NC(=O)COc4ccccc4C)cc3)nc2s1 -17.4%
COc1ccc(CCC(=O)NCCc2csc(-c3ccc(F)cc3)n2)cc1 -6.96%
CCC(=O)Oc1ccc2c(c1)CC[C@@H]1[C@@H]2CC[C@@]2(C)[C@H]1C[C@@H](OC(=O)CC)[C@@H]2OC(=O)CC -13.5%
COc1ccc(OC)c(NC(=O)CSc2nc(=O)n(CCN(C)C)c3c2CCC3)c1 -7.35%
CCc1ccccc1NC(=O)N1CCOc2ccccc21 -20.4%
CCCOc1ccc(C2C(=O)N(C3CCCCCC3)CC(=O)N2Cc2ccccc2OC)cc1OC (centres undefined) -33.2%
O=C(Cn1ncc2c([nH]c3ccccc32)c1=O)NCCCN1CCN(c2ccc(F)cc2)CC1 7.7%
COc1cc(NC(=O)CC2C(=O)N(c3ccccc3)C(=O)N2Cc2ccc(F)cc2)cc(OC)c1 (centres undefined) -25.3%
CCCn1c2ccccc2c2cnn(CC(=O)Nc3cc(C)c(Cl)cc3OC)c(=O)c21 -6.7%
CCc1ccc(-n2c(=O)c3c4c(sc3n(Cc3ccccc3C#N)c2=O)CCCC4)cc1 -11%
CC1CCc2c(sc(NC(=O)Cc3ccccc3)c2C(=O)Nc2ccc(Cl)cc2)C1 (centres undefined) 0.429%
COc1ccc(CNC(=O)CCNS(=O)(=O)c2ccc3c(c2)oc(=O)n3C)cc1 -6.86%
O=C(O)CC1CCCc2ccccc2C1O (centres undefined) -1.28%
CCC1CN(C(=O)Nc2ccccc2F)c2cc(C)ccc2O1 (centres undefined) -19.2%
CCOc1ccc(-c2nc(Cn3c(=O)cc(C)c4c(C)nn(-c5ccccc5)c43)c(C)o2)cc1 -0.0055%
CC1CCN(CC2CCN(C(=O)NCc3ccccc3)CC2)CC1 3.14%
CCCCCCn1nnc2sc(-c3ccccc3)cc2c1=O 0.65%
Cc1cc2c(s1)Nc1ccccc1N=C2N1CCN(C)CC1 5%
Cc1ccccc1C(=O)Nc1cc(C)c(O)c(-c2nc3ccccc3o2)c1 6.86%
COc1cc(C)ccc1OCCSc1nc2ccc(NC(=O)c3ccco3)cc2s1 7.82%
CCN1c2ccccc2-c2nc(SCC(=O)Nc3cccc(C)c3C)ncc2S1(=O)=O 21.8%
CCn1cc(C(=O)N(C)Cc2ccccc2)c(=O)c2cc(S(=O)(=O)N3CCc4ccccc4C3)ccc21 -26.1%
COc1ccc(C2CC(=O)c3cc(-c4nc(-c5cccc([N+](=O)[O-])c5)cs4)c(=O)n(-c4ccccc4)c3C2)cc1 (centres undefined) 0.151%
COc1cccc(C(=O)NCC2OCCc3ccccc32)c1 (centres undefined) 14.3%
O=C(NCCc1ccccc1)c1ccc2c(c1)N(Cc1ccc(Cl)cc1)C(=O)CS2 0.0854%
Cc1nn(C)c(C)c1S(=O)(=O)N(CC(=O)NCCc1ccccc1)c1ccc(C(C)C)cc1 -10.3%
CCc1ccc(NC(=O)CSc2ccnc(=O)[nH]2)cc1 -9%
Cc1ccc(C(=O)c2cn(Cc3cccc(Cl)c3)c3nc(C)ccc3c2=O)cc1 -9.64%
CCCCNC(=O)c1nn(C)c2c1CSc1ccccc1-2 -15.6%
Cc1cccc(N2C(=O)CC(c3ccc(F)cc3)C3=C2COC3=O)c1 (centres undefined) -16.7%
O=C(CSCc1ccc(F)cc1)N1CCN(c2ccccc2F)CC1 -12.7%
Cc1cc2c(cc1S(=O)(=O)NCc1ccc(F)cc1)n(C)c(=O)c(=O)n2C 9.33%
CCOc1ccc(CNC(=O)c2cccc(NC(=O)N3CCSc4ncccc43)c2)cc1OC 27.6%
CCc1ccc(C(=O)c2cn(CC(=O)Nc3ccc(Cl)cc3)c3cc4c(cc3c2=O)OCO4)cc1 4.06%
CCOc1cc2sc(N3CCC(C(=O)Nc4ccc(CC)cc4)CC3)nc2cc1Br -7.44%
CC(=O)N1CCCc2cc(S(=O)(=O)N3CCCC(C(=O)N4CCN(c5cccc(Cl)c5)CC4)C3)ccc21 (centres undefined) 8.45%
Cc1nc(N2CCCC2)c2c(C(=O)N3CCN(c4ccccc4)CC3)c(C)oc2n1 -11.1%
Cc1cc2c(n1-c1ccc(C(=O)NCCc3ccc(Cl)cc3)cc1)CCCC2 -18%
CCC(Cn1nnc2ccccc2c1=O)NC(=O)Nc1cc(C)cc(C)c1 (centres undefined) -21.8%
CC(C)C(=O)Nc1nnc2n1CCS2 5.75%
CC(C)c1nn2c(=O)cc(COC(=O)c3cccc(NC(=O)COc4ccc(F)cc4)c3)nc2s1 -2.58%
Cc1ccc(S(=O)(=O)n2nc(C)c(S(=O)(=O)N3CCCCCC3)c2C)cc1 -6.45%
Cc1ccc(C)c(CSc2nnc3[nH]c(=O)cc(C)n23)c1 30.6%
COc1ccc(C)cc1NC(=O)c1noc2c1CSc1ccccc1-2 -3.28%
COc1ccc(C2C(C(=O)Nc3ccccc3)=C(C)Nc3c(C(=O)Nc4ccccc4)cnn32)cc1 (centres undefined) -28.2%
CS(=O)(=O)N1CCc2cc(C(=O)N3CCN(c4cccc(Cl)c4)CC3)ccc21 15.8%
COCCNC(=O)CCC(=O)NNc1nc2ccccc2c2nc(C)nn12 -0.6%
CCOc1ccccc1NC(=O)c1c(NC(=O)COc2ccc(Cl)cc2)sc2c1CCCCC2 -0.0805%
Cc1ccc(C)c(CSc2nc(-c3ccccc3F)nc3c2Cc2c(CO)cnc(C)c2O3)c1 6.18%
COc1ccc(Br)cc1C1C(C(=O)Nc2ccc(C)cc2C)=C(C)Nc2ncnn21 (centres undefined) -6.98%
Cc1ccc(NC(=O)C2(c3cccs3)CCOCC2)cc1Cl 15.4%
Cc1ccc(C)c(N2CCN(C(=O)c3cn(CC(C)C)c(=O)c4c3c3ccccc3n4C)CC2)c1 -9.69%
COc1ccc(NC(=O)Cn2c(=O)n(-c3cc(C)cc(C)c3)c(=O)c3oc4ccccc4c32)cc1OC -32.5%
COc1cccc(NC(=O)Cn2nnc(C(=O)NCc3cccs3)c2N)c1 6.35%
O=C(NCCc1ccccc1)c1nn(-c2ccccc2F)nc1CO -11.3%
COc1ccc(S(=O)(=O)NCc2ccc3c(c2)CCN3C(=O)c2ccccc2)cc1OC -20.9%
COC(=O)c1ccc(Cl)cc1NC(=O)N1CC2CCCN2c2ccccc21 (centres undefined) -10.7%
CCOC(=O)C1CCN(c2cc3c(cc2NC(=O)c2ccc(Cl)cc2)n(C)c(=O)n3C)CC1 3.94%
